# From PubChem BioAssay AID686971 (National Center for Advancing Translational Sciences (NCATS), 2013)
# The whole screen tested about 360,000 compounds, of which about 7,500 (2.1%) were called active. The shares of active, inactive and inconclusive entries below differ from those in the screen. Calls follow the shape of the dose curve; as a rule, active = well fitted cell-killing curve with a large enough effect; inconclusive = small, poorly fitted or top-dose-only effect, or effect the other way, or another doubt; inactive = no such curve, though single readings can be large or run the other way. No potency is given beside an inconclusive call; the fits are too rough.
# Assay: qHTS for induction of synthetic lethality in tumor cells producing 2HG: qHTS for the HT-1080-IDH1KD cell line;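 as to activity, negative = toxicity: 0% = DMSO wells and -100% = cell-free medium wells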
# Settings: HT-1080 IDH1 knockdown viability, ATP luminescence, 48 h; activity, negative = toxicity: at 46.1 µM (top of the series) unless noted
# Outline: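 HT-1080-IDH1KD cells (IDH1 knocked down), 750/well in RPMI with 5% FBS, treated with compound 48 h at 37 degrees C. Viability by CellTiter-Glo luminescence, normalised to DMSO and no-cell wells; concentration-response curves classed.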
# Potency is read from the fitted curve at half-maximal effect; tags tell the direction and shape of the fitted curve.
Compound,Potency,"activity, negative = toxicity"
Cc1cc(C)cc(C(=O)N2CC(=O)Nc3ccccc32)c1,active: 0.517 µM,
FC(F)Oc1ccc(NC(=S)NCCc2ccccn2)cc1,"inconclusive [rising, partial curve]",
CCC(Cc1ccccc1)NC(=O)c1cc(S(=O)(=O)N2CCCCC2)c[nH]1 (stereo unspecified),inactive,
Fc1ccc2c(c1)C(c1ccncc1)=NNC(c1ccc(Cl)cc1)=N2,inactive,
CC1(Cc2ccc(C(F)(F)F)nc2)C(=O)Nc2cc(-c3ccccc3Cl)ccc21 (stereo unspecified),"inconclusive [cytotoxic, single point]",
O=C(Nc1ccc(Nc2ccccc2)cc1)c1ccc(Cl)cc1Cl,"inconclusive [cytotoxic, single point]",
CN1CCC(=C2c3ccccc3Sc3ccccc32)CC1,"inconclusive [cytotoxic, single point]",
COc1ccc(C2=NOC(C(=O)Nc3cc(Br)ccc3O)C2)cc1OC (stereo unspecified),"inconclusive [cytotoxic, partial curve]",
COc1cccc(-c2cnc3c(NC(C)=O)cc(-c4ccc(OC)c(OC)c4)cn23)c1,"inconclusive [cytotoxic, single point]",
Cc1nc(N2CCN(C(=O)c3ccco3)CC2)c2c3c(sc2n1)CCCC3,"inconclusive [cytotoxic, single point]",
COCCOC(=O)c1[nH]c2c(c1C)C(=O)CC(c1ccco1)C2 (stereo unspecified),active: 1.64 µM,
CC(=O)C1=C(NC(=O)c2ccc(C(F)(F)F)cc2)C[C@@H]2[C@H]1C2(C)C,"inconclusive [rising, partial curve]",
CC(=O)N1c2ccc(S(=O)(=O)N3CCC(C(=O)Nc4cccc(Cl)c4)CC3)cc2CC1C (stereo unspecified),,inconclusive: -9.78% [cytotoxic]
Cc1cc(=O)oc2c(C(=O)/C=C\c3cccs3)c(O)ccc12,active: 20.6 µM,
CC(=O)Nc1cccc(NC(=O)C2CCCN2C(=O)Nc2ccccc2C)c1 (stereo unspecified),,inconclusive: -4.89% [cytotoxic]
COc1ccc(CN(CC(=O)NCc2ccc(F)cc2)C(=O)CCC(=O)Nc2nccs2)cc1,"inconclusive [cytotoxic, single point]",
Clc1cccc(CNc2ccn3nc(-c4ccccc4Cl)cc3n2)c1,"inconclusive [cytotoxic, single point]",
Nc1c2ccccc2nc2ccccc12,active: 13 µM,
OCCNc1ncnc2c1ncn2[C@H]1CN(Cc2ccncc2)C[C@@H](CO)O1,inactive,
Cc1ccc(NC(=O)c2cc(S(=O)(=O)NCCC3=CCCCC3)ccc2F)cc1F,"inconclusive [cytotoxic, single point]",
Cc1c(C(c2ccc(C(=O)O)cc2)c2c(C)n(C)n(-c3ccccc3)c2=O)c(=O)n(-c2ccccc2)n1C,inactive,
COC(=O)c1c(NC(=O)Cc2ccccc2)sc2c1C(C(=O)OC)CC2 (stereo unspecified),inactive,
Cc1cc(C)c(COCc2cc(/C=N/O)c(C)cc2C)cc1/C=N/O,"inconclusive [cytotoxic, single point]",

Compound,Potency,"activity, negative = toxicity"
O=C1CCCC/C1=N\Nc1ccc(OCc2ccccc2)cc1,active: 5.17 µM,
CN1CCCN(C(=O)c2ccc(Cl)c(S(=O)(=O)N(C)c3ccccc3)c2)CC1,inactive,
COc1ccc(C(C(=O)Nc2ccc3c(c2)OCCO3)n2c(=O)c(-c3ccco3)nc3ccccc32)cc1 (stereo unspecified),active: 13 µM,
O=C(CCN1CCN(C(c2ccccc2)c2ccccc2)CC1)N/N=C/c1ccc(O)cc1O,"inconclusive [cytotoxic, single point]",
CC(C)CNc1ncnc2c1ncn2[C@H]1CN(Cc2ccc(-c3ccccc3)cc2)C[C@@H](CO)O1,"inconclusive [cytotoxic, single point]",
O=C(c1cc(Br)ccc1Cl)N1CCN(c2ccc(N3CCOCC3)nn2)CC1,"inconclusive [cytotoxic, partial curve]",
COc1ccc(-c2cc3nc(NCCCN(C)C)n(C)c(=O)c3s2)c(C)c1,inactive,
COc1ccc(NS(=O)(=O)c2ccc(C(=O)N3CCN(Cc4ccccc4)CC3)cc2)cc1,inactive,
COc1cc2c(cc1OC)CN(C(=O)/C=C/c1ccccc1[N+](=O)[O-])CC2,"inconclusive [cytotoxic, single point]",
Cc1ccc(OCc2cc(C(=O)NCCn3cccn3)no2)cc1C,inactive,
COc1ccc(-c2cc(NC=O)c3ncc(-c4cccc(C(C)=O)c4)n3c2)cc1,"inconclusive [cytotoxic, single point]",
CCn1c(=S)sc2c(=O)[nH]c(SCC(=O)Nc3cc(OC)ccc3OC)nc21,inactive,
O=C(O)C12CC3CC(C1)CC(n1ncc(N4CCN(c5ccccc5)CC4)c(Cl)c1=O)(C3)C2,"inconclusive [rising, partial curve]",
CC1CCc2c(sc3ncnc(SC(C)C(=O)NCC4CCCO4)c23)C1 (stereo unspecified),"inconclusive [cytotoxic, single point]",
CC(C)c1c(C(=O)N/N=C/c2ccc(C(F)(F)F)cc2)nnn1-c1nonc1N,active: 25.9 µM,
Nc1ccn([C@@H]2O[C@H](CO)[C@@H](O)C2O)c(=O)n1 (stereo partly specified),,inconclusive: -27.7% [cytotoxic]
O=C(CC1N=C2c3ccccc3N=C(SCc3ccc(Cl)cc3)N2C1=O)NCc1ccco1 (stereo unspecified),inactive,
COc1ccc(N(C(=O)CNC(=O)c2cccs2)C(C(=O)NC2CCCC2)c2cccnc2)cc1 (stereo unspecified),inactive,
Cc1nc2ccccc2c(=O)n1NC(=O)c1c(F)cccc1F,inactive,
COc1cc2c(OC(C)=O)c3c(c(-c4ccc5c(c4)OCO5)c2cc1OC)C(=O)OC3,active: 2.06 µM,
CCOc1cc(/C=C2/C(=N)N3C(=NC2=O)SN=C3S(C)(=O)=O)ccc1OS(=O)(=O)c1ccccc1,inactive,
Cc1ccccc1OCc1nnc(SCC(=O)Nc2ccc3nc(SCC(=O)NC(C)(C)C)sc3c2)n1C,inactive,
CCOc1cc(/C=C/C(=O)c2ccc(O)cc2)ccc1OCC(=O)N(C)C,"inconclusive [cytotoxic, single point]",
